Laboratory results reported in the supplement of paper PMC7826260.
The other results are listed elsewhere or left out. Viral Rep nickase domains cut single-stranded DNA in vitro at 3 µM enzyme and 37 °C for 1 h; the strands have 90 letters, of which the middle is given. The score is log2 (uncut reads / reads without enzyme); more negative means more cut, near 0 not cut, and no call is made. The scaling is to total reads; uncut strands gain when others are lost, and binding without cutting may add a little.

Experiments:
Assay in all cases: uncleaved DNA left, log2 of reads against the no-enzyme library (log2 ratio); higher = less cleavage (more negative = more Rep cleavage of the k-mer); sequences stand for … in CTCGTCCG…ACCGGAGA
[1] = test system: T1, Rep nickase domain of Muscovy duck circovirus
T1 sequence (residues 1-111 of Rep, tag left off): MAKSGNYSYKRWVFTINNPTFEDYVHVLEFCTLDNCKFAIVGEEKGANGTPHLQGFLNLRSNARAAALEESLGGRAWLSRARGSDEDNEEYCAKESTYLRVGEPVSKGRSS
Procedure: (§1)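 A pool of 90-nt single-stranded DNAs with seven random bases just before the constant AC of the nick site (name = the seven bases) was cut by 3 µM recombinant His6-SUMO-tagged Rep nickase domain (300 nM DNA, 50 mM HEPES pH 8.0, 50 mM NaCl, 1 mM MnCl2, 1 h, 37 °C, three replicates). Uncut DNA was amplified and sequenced.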

[2] = test system: T2, Rep nickase domain of banana bunchy top virus
T2 sequence (residues 1-94 of Rep, tag left off): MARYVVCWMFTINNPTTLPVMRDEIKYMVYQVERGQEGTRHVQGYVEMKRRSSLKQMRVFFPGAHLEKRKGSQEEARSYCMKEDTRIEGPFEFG
Procedure: as §1

[3] = test system: T3, Rep nickase domain of cabbage leaf curl virus
T3 sequence (residues 1-116 of Rep, tag left off): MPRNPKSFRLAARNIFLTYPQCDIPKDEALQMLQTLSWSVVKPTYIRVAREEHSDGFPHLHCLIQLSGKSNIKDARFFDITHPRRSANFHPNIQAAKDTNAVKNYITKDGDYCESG
Procedure: as §1

[4] = test system: T4, Rep nickase domain of chickpea chlorotic dwarf virus
T4 sequence (residues 1-124 of Rep, tag left off): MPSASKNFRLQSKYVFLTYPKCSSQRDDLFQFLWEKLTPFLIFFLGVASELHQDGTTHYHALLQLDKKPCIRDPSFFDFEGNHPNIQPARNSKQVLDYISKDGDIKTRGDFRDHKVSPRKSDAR
Procedure: as §1

[5] = test system: T5, Rep nickase domain of faba bean necrotic yellows virus
T5 sequence (residues 1-98 of Rep, tag left off): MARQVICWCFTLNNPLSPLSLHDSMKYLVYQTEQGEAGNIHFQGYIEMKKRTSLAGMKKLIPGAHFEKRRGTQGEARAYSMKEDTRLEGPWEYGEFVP
Procedure: as §1

[6] = test system: T6, Rep nickase domain of maize striate mosaic virus
T6 sequence (residues 1-117 of Rep, tag left off): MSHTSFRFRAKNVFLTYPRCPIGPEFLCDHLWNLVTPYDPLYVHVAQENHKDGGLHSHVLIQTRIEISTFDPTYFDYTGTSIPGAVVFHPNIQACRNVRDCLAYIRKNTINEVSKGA
Procedure: as §1

[7] = test system: T7, Rep nickase domain of porcine circovirus 2
T7 sequence (residues 2-116 of Rep, tag left off): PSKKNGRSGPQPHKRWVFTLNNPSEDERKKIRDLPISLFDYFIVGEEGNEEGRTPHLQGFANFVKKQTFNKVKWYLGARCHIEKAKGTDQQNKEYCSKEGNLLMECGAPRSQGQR
Procedure: as §1

[8] = test system: T8, Rep nickase domain of tomato golden mosaic virus
T8 sequence (residues 1-124 of Rep, tag left off): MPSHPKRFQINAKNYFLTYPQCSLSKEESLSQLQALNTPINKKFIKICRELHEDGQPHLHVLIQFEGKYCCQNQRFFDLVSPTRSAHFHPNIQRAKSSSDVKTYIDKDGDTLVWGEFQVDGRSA
Procedure: as §1

[9] = test system: T9, Rep nickase domain of tomato yellow leaf curl virus
T9 sequence (residues 1-136 of Rep, tag left off): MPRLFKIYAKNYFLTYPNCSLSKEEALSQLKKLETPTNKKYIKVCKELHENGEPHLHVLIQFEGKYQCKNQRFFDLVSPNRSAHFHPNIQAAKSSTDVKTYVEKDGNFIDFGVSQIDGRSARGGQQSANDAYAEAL
Procedure: as §1

[10] = test system: T10, Rep nickase domain of wheat dwarf virus
T10 sequence (residues 1-137 of Rep, tag left off): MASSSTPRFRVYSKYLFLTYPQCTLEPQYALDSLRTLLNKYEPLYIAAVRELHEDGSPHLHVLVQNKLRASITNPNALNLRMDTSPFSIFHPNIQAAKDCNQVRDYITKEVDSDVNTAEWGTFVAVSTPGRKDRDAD
Procedure: as §1

| Sequence | uncleaved DNA left (log2) [1] | uncleaved DNA left (log2) [2] | uncleaved DNA left (log2) [3] | uncleaved DNA left (log2) [4] | uncleaved DNA left (log2) [5] | uncleaved DNA left (log2) [6] | uncleaved DNA left (log2) [7] | uncleaved DNA left (log2) [8] | uncleaved DNA left (log2) [9] | uncleaved DNA left (log2) [10] |
| --- | --- | --- | --- | --- | --- | --- | --- | --- | --- | --- |
| GACCTTA | -0.0729 | 0.0238 | 0.0431 | -0.398 | -0.128 | 0.567 | -0.00688 | 0.0384 | -0.0215 | 0.113 |
| AATCGTA | -0.00473 | -0.04 | -0.324 | -1.7 | 0.0755 | -0.985 | -0.322 | -0.0371 | 0.0438 | -0.0653 |
| GCACAAC | 0.0336 | 0.105 | 0.105 | -0.396 | 0.0482 | -0.136 | 0.198 | -0.0205 | 0.0301 | 0.0866 |
| AAACAGA | -0.037 | 0.0306 | -0.125 | -0.811 | 0.0604 | -0.923 | 0.157 | -0.0106 | -0.0188 | -0.0446 |
| CAGCTGA | 0.0869 | 0.013 | 0.466 | 1.58 | -0.0353 | 1.56 | 0.293 | 0.185 | 0.0247 | 0.132 |
| GTCCCGT | -0.0313 | 0.0592 | 0.314 | 0.666 | -0.083 | 1.5 | 0.0207 | 0.0455 | 0.102 | 0.00375 |
| AACGACA | 0.0175 | 0.085 | -0.0105 | -0.488 | -0.0211 | 0.663 | -0.0676 | -0.0422 | 0.021 | 0.0649 |
| TCGTTGG | 0.0226 | 0.00521 | -0.299 | -0.509 | -0.0778 | -0.733 | 0.0841 | 0.00704 | -0.0318 | -0.0544 |
| CCCTATA | 0.021 | -0.0572 | -0.108 | -1.86 | -0.056 | -0.779 | -0.199 | -0.0656 | 0.0435 | -0.0585 |
| ACTTAGT | -0.715 | -0.171 | -0.37 | -0.802 | -0.0441 | -0.911 | -3.16 | 0.101 | 0.0649 | -0.0615 |
| CTCAACC | -0.353 | -0.0177 | -0.156 | -2.01 | 0.0422 | -0.789 | -0.784 | -0.146 | -0.0566 | -0.108 |
| CACGAGG | 0.0469 | -0.0264 | 0.206 | 0.85 | 0.0949 | 0.34 | 0.119 | 0.16 | -0.0757 | -0.000524 |
| TATGCCG | 0.0438 | -0.128 | -0.981 | 0.187 | -0.00637 | -0.929 | -0.0262 | -0.231 | -0.0406 | -0.125 |
| AAGTCCA | -0.0591 | -0.119 | 0.0412 | -1.84 | -0.148 | 0.0517 | -2.85 | 0.00963 | -0.00903 | -0.044 |
| CCGACTA | -0.031 | -0.076 | -0.135 | 0.18 | -0.0251 | 1.04 | -0.0306 | -0.0641 | -0.201 | -0.00117 |
